Experimental data from the supplement of paper PMC3334620.
The full ranking holds about 33,000 sequences; the median of “E-score (-0.5 to 0.5)” is about -0.035, and the highest 2% start at about 0.34. The list shows a part of the results.

These sequences were tested against T1, Mot3 (UniProt P54785) (assay: PBM E-score (8-mer binding enrichment) (E-score (-0.5 to 0.5)); higher = stronger / more preferred TF binding; most listed sequences are background and not binding sites). Conditions: protein concentration: 200 nM; construct: GST-full length.
T1 sequence: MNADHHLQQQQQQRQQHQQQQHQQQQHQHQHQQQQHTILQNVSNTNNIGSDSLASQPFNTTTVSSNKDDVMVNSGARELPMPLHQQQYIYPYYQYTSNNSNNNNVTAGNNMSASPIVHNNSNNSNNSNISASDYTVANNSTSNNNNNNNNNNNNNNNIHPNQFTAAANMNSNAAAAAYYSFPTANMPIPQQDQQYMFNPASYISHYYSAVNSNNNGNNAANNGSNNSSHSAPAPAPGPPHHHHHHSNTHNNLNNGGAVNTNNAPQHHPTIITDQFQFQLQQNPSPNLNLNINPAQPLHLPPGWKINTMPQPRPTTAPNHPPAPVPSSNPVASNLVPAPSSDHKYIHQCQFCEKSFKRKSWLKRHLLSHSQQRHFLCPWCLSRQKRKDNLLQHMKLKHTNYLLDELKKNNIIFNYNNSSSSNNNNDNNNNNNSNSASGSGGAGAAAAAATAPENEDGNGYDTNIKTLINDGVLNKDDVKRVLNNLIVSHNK
In short: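 Yeast transcription factors carrying a GST tag, as full-length proteins or DNA-binding domains, were produced by PURExpress in vitro transcription/translation. About 100-200 nM protein was applied to universal all-10-mer Agilent arrays, double-stranded by primer extension on fresh or once-stripped slides. Bound protein was detected with fluorescent anti-GST, and scans were normalised with masliner. The Universal PBM Analysis Suite gave each ungapped eight-base word, pooled with its reverse complement, an E-score, a modified Wilcoxon-Mann-Whitney statistic.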

Question: AATTCCGT was tested. Which “PBM E-score” value did it give?
Answer: 0.079

Question: With CTCACCAG as the sequence, how does the “PBM E-score” value read?
Answer: -0.228

Question: For ACCAAGTC, which “PBM E-score” value is on record?
Answer: -0.121

Question: Which “PBM E-score” value does the source give for TGCCGCAA here?
Answer: -0.114

Question: With CGGTGCAA as the sequence, how does the “PBM E-score” value read?
Answer: 0.00071

Question: With ACGCGAAC as the sequence, how does the “PBM E-score” value read?
Answer: 0.124

Question: How did the “PBM E-score” value turn out when GCGACGCA was run?
Answer: -0.151

Question: TGTACTAA was tested. Which “PBM E-score” value did it give?
Answer: 0.174

Question: Which “PBM E-score” value does the source give for ACCATGGA here?
Answer: -0.11

Question: Which “PBM E-score” value does the source give for GCGTGGAC here?
Answer: -0.207

Question: Which “PBM E-score” value does the source give for CGTGTCTA here?
Answer: 0.258

Question: With CTCTGGGA as the sequence, how does the “PBM E-score” value read?
Answer: -0.236

Question: Which “PBM E-score” value does the source give for AGTCCACC here?
Answer: -0.168

Question: AGTGGGCA was tested. Which “PBM E-score” value did it give?
Answer: 0.0468

Question: Which “PBM E-score” value does the source give for AAGAAGAG here?
Answer: 0.0452

Question: How did the “PBM E-score” value turn out when GTGGTCAA was run?
Answer: -0.00981

Question: GAAATACA was tested. Which “PBM E-score” value did it give?
Answer: 0.328

Question: Which “PBM E-score” value does the source give for CGAGATAC here?
Answer: 0.051

Question: CAAGTAGC was tested. Which “PBM E-score” value did it give?
Answer: 0.00372

Question: For ATAATTCG, which “PBM E-score” value is on record?
Answer: 0.0134

Question: For CGTCCACG, which “PBM E-score” value is on record?
Answer: -0.287

Question: Which “PBM E-score” value does the source give for GATCAATA here?
Answer: -0.0835

Question: Which “PBM E-score” value does the source give for CTAACTGA here?
Answer: -0.105

Question: Which “PBM E-score” value does the source give for AGCTTTTA here?
Answer: 0.0476

Question: Which “PBM E-score” value does the source give for CGGGCTAC here?
Answer: -0.201

Question: For GCTAGTCC, which “PBM E-score” value is on record?
Answer: -0.342

Question: Which “PBM E-score” value does the source give for AGCGACCT here?
Answer: -0.135

Question: With AATTCTCA as the sequence, how does the “PBM E-score” value read?
Answer: 0.0166

Question: AAAGAAAG was tested. Which “PBM E-score” value did it give?
Answer: 0.191

Question: For AGACGACC, which “PBM E-score” value is on record?
Answer: -0.0112

Question: For AGCTCTGA, which “PBM E-score” value is on record?
Answer: -0.316

Question: Which “PBM E-score” value does the source give for AATAGCAT here?
Answer: 0.0627

Question: Which “PBM E-score” value does the source give for GAAGTTCA here?
Answer: -0.0596

Question: How did the “PBM E-score” value turn out when AACCGCGC was run?
Answer: -0.125

Question: AGGGCCGC was tested. Which “PBM E-score” value did it give?
Answer: -0.2

Question: ACTTTCGC was tested. Which “PBM E-score” value did it give?
Answer: -0.0295

Question: For AACCAGGT, which “PBM E-score” value is on record?
Answer: -0.172

Question: For AGGTGGAG, which “PBM E-score” value is on record?
Answer: -0.039

Question: For CGATGCGA, which “PBM E-score” value is on record?
Answer: -0.192

Question: With CTAGCTAG as the sequence, how does the “PBM E-score” value read?
Answer: -0.146

Question: For GAAACAAA, which “PBM E-score” value is on record?
Answer: 0.173

Question: How did the “PBM E-score” value turn out when ATCCCGGA was run?
Answer: -0.199

Question: How did the “PBM E-score” value turn out when CAACCAGC was run?
Answer: 0.00855

Question: How did the “PBM E-score” value turn out when AAATGGAT was run?
Answer: 0.12

Question: ACAGGGGG was tested. Which “PBM E-score” value did it give?
Answer: -0.191

Question: How did the “PBM E-score” value turn out when GCGCCAGC was run?
Answer: 0.128

Question: Which “PBM E-score” value does the source give for CGAGTATC here?
Answer: -0.191

Question: For CCGGTTGA, which “PBM E-score” value is on record?
Answer: -0.156

Question: How did the “PBM E-score” value turn out when ATCGTGGC was run?
Answer: 0.0571

Question: Which “PBM E-score” value does the source give for TGCAAAAA here?
Answer: 0.106

Question: With GGGGATTA as the sequence, how does the “PBM E-score” value read?
Answer: 0.0141

Question: With ATTTCTCG as the sequence, how does the “PBM E-score” value read?
Answer: 0.18

Question: Which “PBM E-score” value does the source give for GTACGGAC here?
Answer: -0.157

Question: How did the “PBM E-score” value turn out when GGCTGCCC was run?
Answer: -0.361

Question: Which “PBM E-score” value does the source give for GAATTACC here?
Answer: 0.0992

Question: How did the “PBM E-score” value turn out when ACGAGCGG was run?
Answer: -0.186

Question: AGGAGCGC was tested. Which “PBM E-score” value did it give?
Answer: -0.141

Question: With GGCTGATA as the sequence, how does the “PBM E-score” value read?
Answer: -0.23

Question: With AATATGTG as the sequence, how does the “PBM E-score” value read?
Answer: 0.228

Question: With GTGTGGGA as the sequence, how does the “PBM E-score” value read?
Answer: -0.0409

Question: With CATTCATC as the sequence, how does the “PBM E-score” value read?
Answer: -0.057

Question: With CGAAAACG as the sequence, how does the “PBM E-score” value read?
Answer: -0.12

Question: With TCAGCGGA as the sequence, how does the “PBM E-score” value read?
Answer: -0.276

Question: How did the “PBM E-score” value turn out when CGTCAAAG was run?
Answer: 0.101

Question: Which “PBM E-score” value does the source give for CCTTATAA here?
Answer: 0.146

Question: CATTTACC was tested. Which “PBM E-score” value did it give?
Answer: 0.158

Question: CGTTTCAG was tested. Which “PBM E-score” value did it give?
Answer: 0.0418

Question: Which “PBM E-score” value does the source give for AGCATGAG here?
Answer: -0.0411

Question: Which “PBM E-score” value does the source give for ACGTACCC here?
Answer: 0.0197

Question: With CACAGTCA as the sequence, how does the “PBM E-score” value read?
Answer: 0.0815

Question: AGGATTAT was tested. Which “PBM E-score” value did it give?
Answer: 0.046

Question: For AGCATACC, which “PBM E-score” value is on record?
Answer: -0.171

Question: How did the “PBM E-score” value turn out when CCAAAAGC was run?
Answer: -0.184

Question: Which “PBM E-score” value does the source give for CAGGCATC here?
Answer: 0.402

Question: For ACAGTACC, which “PBM E-score” value is on record?
Answer: -0.0195

Question: ATCGAACC was tested. Which “PBM E-score” value did it give?
Answer: -0.089

Question: For ACAACTCG, which “PBM E-score” value is on record?
Answer: 0.115

Question: How did the “PBM E-score” value turn out when CGGATGGA was run?
Answer: -0.209

Question: With AATGATCT as the sequence, how does the “PBM E-score” value read?
Answer: -0.113

Question: How did the “PBM E-score” value turn out when GCCTTATA was run?
Answer: 0.246

Question: For AAAACCTT, which “PBM E-score” value is on record?
Answer: -0.0457

Question: With GACAAGAA as the sequence, how does the “PBM E-score” value read?
Answer: -0.041

Question: With CCCAACTC as the sequence, how does the “PBM E-score” value read?
Answer: -0.0709

Question: With CAAGGTTC as the sequence, how does the “PBM E-score” value read?
Answer: -0.0388

Question: For CATGGGCC, which “PBM E-score” value is on record?
Answer: -0.088

Question: How did the “PBM E-score” value turn out when GACGTCGC was run?
Answer: -0.069
